This note sets out measurements from publication PMC4336329 (PLoS ONE, 2015).

Hit rate of the full screen: of about 310,000 compounds, about 14,000 (4.5%) showed an effect of 50% or more. Effects have a minus sign here. This is one part of the list.
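Further: peak tail current of the secondary pulse compared with the same well before compound.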

In the experiment the target is human ether-à-go-go-related gene (hERG) potassium channel (human, UniProt Q12809). Nature of the experiment: primary screen, population patch clamp on CHO cells stably expressing hERG.
human ether-à-go-go-related gene (hERG) potassium channel, sequence (Q12809 whole entry, looked up): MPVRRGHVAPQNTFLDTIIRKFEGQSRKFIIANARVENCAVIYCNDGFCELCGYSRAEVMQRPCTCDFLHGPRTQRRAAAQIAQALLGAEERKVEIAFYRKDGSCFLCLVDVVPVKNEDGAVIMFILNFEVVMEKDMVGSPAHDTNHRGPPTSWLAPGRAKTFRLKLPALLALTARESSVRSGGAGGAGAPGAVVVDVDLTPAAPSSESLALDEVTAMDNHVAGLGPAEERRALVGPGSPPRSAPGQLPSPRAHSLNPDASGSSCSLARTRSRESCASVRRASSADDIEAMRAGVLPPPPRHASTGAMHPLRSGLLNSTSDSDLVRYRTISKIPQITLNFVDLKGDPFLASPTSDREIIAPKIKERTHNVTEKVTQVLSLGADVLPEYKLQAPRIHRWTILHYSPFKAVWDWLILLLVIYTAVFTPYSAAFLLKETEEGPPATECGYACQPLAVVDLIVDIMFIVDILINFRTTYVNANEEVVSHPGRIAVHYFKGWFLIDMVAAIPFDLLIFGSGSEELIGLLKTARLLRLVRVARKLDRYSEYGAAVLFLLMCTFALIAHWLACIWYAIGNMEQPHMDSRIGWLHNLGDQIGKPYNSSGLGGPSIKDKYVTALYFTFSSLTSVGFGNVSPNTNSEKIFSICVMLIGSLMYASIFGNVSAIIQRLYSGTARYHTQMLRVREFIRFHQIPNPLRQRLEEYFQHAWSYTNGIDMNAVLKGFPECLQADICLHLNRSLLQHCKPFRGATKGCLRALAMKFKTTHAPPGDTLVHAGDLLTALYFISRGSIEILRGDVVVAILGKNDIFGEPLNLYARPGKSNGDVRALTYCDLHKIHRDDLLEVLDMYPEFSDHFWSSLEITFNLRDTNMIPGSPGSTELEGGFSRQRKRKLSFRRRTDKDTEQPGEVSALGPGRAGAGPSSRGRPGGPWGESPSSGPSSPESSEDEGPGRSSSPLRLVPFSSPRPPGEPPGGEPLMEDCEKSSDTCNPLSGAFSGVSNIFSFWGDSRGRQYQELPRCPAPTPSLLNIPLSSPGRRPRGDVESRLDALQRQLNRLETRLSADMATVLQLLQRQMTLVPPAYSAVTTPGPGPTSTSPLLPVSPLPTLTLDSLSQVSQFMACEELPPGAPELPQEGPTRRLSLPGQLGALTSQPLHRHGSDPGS
`CCc1nnc(NS(=O)(=O)c2ccc(N/C=C\C(=O)c3ccc4ccccc4c3)cc2)s1`: the “hERG current change (%, negative = inhibition) at 10uM” value is listed as 5.21%.

With `Cc1cc(C(=O)OCC(=O)N2CC(C)CC(C)C2)c(C)o1` (centres unmarked), the “hERG current change (%, negative = inhibition) at 10uM” value is given as 3.26%.

In the case of `CCC(=O)Nc1cccc2cccnc12`, the “hERG current change (%, negative = inhibition) at 10uM” value is listed as 16.7%.

Consider `COc1ccc(-c2ccnc3nc(N4CCN(c5ccccc5)CC4)nn23)cc1`, for which the “hERG current change (%, negative = inhibition) at 10uM” value is listed as -22.2%.

For `O=C(NNC(=O)c1ccc(=O)[nH]c1)c1ccc(NS(=O)(=O)c2cccs2)cc1`, the “hERG current change (%, negative = inhibition) at 10uM” value is reported as -5.25%.

For the molecule `Cc1n[nH]c(=O)nc1N1CCN(c2ccccc2)CC1`, the “hERG current change (%, negative = inhibition) at 10uM” value is on record as 3.06%.

For `O=C(CNC(=O)C(c1ccccc1)c1ccccc1)N/N=C\c1ccc(C(=O)O)cc1`, the “hERG current change (%, negative = inhibition) at 10uM” value came out at 15%.

Take `O=C(CSc1nc2nn(-c3ccccc3)c(=O)c-2c2n1CCCCC2)NCCCc1ccccc1`: the “hERG current change (%, negative = inhibition) at 10uM” value was -63.1%.

In the case of `CCn1cc(C(=O)N2CCN(C3CCCCC3)CC2)c2cc(OC)c(OC)cc2c1=O`, the “hERG current change (%, negative = inhibition) at 10uM” value is on record as -20.6%.

For the molecule `CCN1CCCCC(=N/O)/C(=N/O)CCCC1`, the “hERG current change (%, negative = inhibition) at 10uM” value was 25.5%.

Turning to `O=C(O)CCCCCNC(=O)CCn1cnc2ccccc2c1=O`, the “hERG current change (%, negative = inhibition) at 10uM” value is recorded as 5.02%.

`COc1ccc(CCNC(=O)CSC2=Nc3ccccc3C3=NC(C(C)C)C(=O)N23)cc1OC` (centres unmarked): the “hERG current change (%, negative = inhibition) at 10uM” value is on record as 14.9%.

For `Cc1nc(Cl)c(C(=O)NC(C)(C)C)c(C)c1Cl`, the “hERG current change (%, negative = inhibition) at 10uM” value was found to be 4.1%.

Take `COCCN(C)Cc1cn(-c2ccc(F)cc2F)nc1-c1ccccc1C`: the “hERG current change (%, negative = inhibition) at 10uM” value is -24.7%.

Regarding `O=c1[nH]c2ccccc2nc1Cc1ccc([N+](=O)[O-])cc1`, the “hERG current change (%, negative = inhibition) at 10uM” value is on record as -17.6%.

For `O=C(CNC(=O)c1ccccc1F)OCCOc1cccc(Cl)c1`, the “hERG current change (%, negative = inhibition) at 10uM” value is reported as -6.3%.

In the case of `COc1ccc(-c2ccnc(-c3ccncc3)n2)cc1`, the “hERG current change (%, negative = inhibition) at 10uM” value was -4.35%.

As to `CC(C)OCC(O)CN1CC2C[C@@H](C1)Cn1c2cccc1=O` (some centres unmarked), the “hERG current change (%, negative = inhibition) at 10uM” value stood at 16.8%.

As for `CCc1ccc(NC(=O)C(C)OC(=O)C2CCC(=O)N2)cc1` (centres unmarked), the “hERG current change (%, negative = inhibition) at 10uM” value is 20.9%.

Regarding `COC(=O)CN1C(=O)Nc2ccc(Br)cc2C1c1ccccc1Cl` (centres unmarked), the “hERG current change (%, negative = inhibition) at 10uM” value is recorded as -7.82%.

`O=C(c1ccc(Cl)cc1)c1ccccc1C(=O)N1CCOCC1`: the “hERG current change (%, negative = inhibition) at 10uM” value is given as -1.18%.

Turning to `CCOc1cc(NC(=S)NCCCN2CCOCC2)c(OCC)cc1NC(=O)c1ccco1`, the “hERG current change (%, negative = inhibition) at 10uM” value is given as -20.8%.

Turning to `COc1ccc(OC)c(NC(=O)COc2coc(CN3CCc4ccccc43)cc2=O)c1`, the “hERG current change (%, negative = inhibition) at 10uM” value is -9.41%.

Turning to `CC(=O)n1cc([C@@H]2C=C(C(=O)NCc3ccccc3)O[C@H](OCc3ccc(CO)cc3)C2)c2ccccc21`, the “hERG current change (%, negative = inhibition) at 10uM” value is reported as -26.6%.

As to `COc1ccc(C2(C)NC(=O)N(CC(=O)c3cc(C)n(C4CC4)c3C)C2=O)cc1` (centres unmarked), the “hERG current change (%, negative = inhibition) at 10uM” value was -24.6%.

With `Cc1nccn1CC1CCc2c(c3ccccc3n2C)C1=O.Cl` (centres unmarked), the “hERG current change (%, negative = inhibition) at 10uM” value is given as -28.4%.

Take `COc1ccc(S(=O)(=O)N2CCCCCC2)cc1C(=O)N(C)Cc1ccc(C)cc1`: the “hERG current change (%, negative = inhibition) at 10uM” value is reported as -40.3%.

Regarding `COCCNC(=O)C(c1ccc(Cl)cc1)N(CCOC)C(=O)CCC(=O)Nc1nccs1` (centres unmarked), the “hERG current change (%, negative = inhibition) at 10uM” value is listed as -4.36%.

With `CC(Cc1cccs1)NC(=S)Nc1ccc(F)cc1` (centres unmarked), the “hERG current change (%, negative = inhibition) at 10uM” value is reported as 5.11%.

Consider `CC(C)CNS(=O)(=O)c1ccc(CCC(=O)NCCc2ccccc2)cc1`, for which the “hERG current change (%, negative = inhibition) at 10uM” value is listed as -3.94%.

On to `CC(C)(CO)NS(=O)(=O)c1ccc2c(c1)Cc1cc(S(=O)(=O)NC(C)(C)CO)ccc1-2`, for which the “hERG current change (%, negative = inhibition) at 10uM” value is listed as 12.8%.

Consider `CC(NC(=O)c1ccc(CS(C)(=O)=O)cc1)c1ccc(-n2ccnc2)cc1` (centres unmarked), for which the “hERG current change (%, negative = inhibition) at 10uM” value was -1.32%.

In the case of `O=C(Cc1cccs1)NCCN1CCOCC1`, the “hERG current change (%, negative = inhibition) at 10uM” value is listed as 3.99%.

For `O=C(Nc1ccccc1)Nc1cccc(-c2nnco2)c1`, the “hERG current change (%, negative = inhibition) at 10uM” value amounted to 12.9%.

Regarding `Nc1cc(N)nc(SCC(=O)Nc2ccccc2)n1`, the “hERG current change (%, negative = inhibition) at 10uM” value was determined as 3.53%.

With `CCOP(=O)(OCC)C(NC(=O)c1cccc([N+](=O)[O-])c1)C(Cl)(Cl)Cl` (centres unmarked), the “hERG current change (%, negative = inhibition) at 10uM” value is 12.2%.

For `Cc1cccc(-n2ncc3c(NCCCO)ncnc32)c1`, the “hERG current change (%, negative = inhibition) at 10uM” value is 3.14%.

`Cc1ccccc1-n1c(C)c(C#N)c(=O)c(-[n+]2ccccc2)c1[S-]`: the “hERG current change (%, negative = inhibition) at 10uM” value was determined as 23.4%.

`O=C(OCc1ccccc1)/C(=C/c1cccc(Br)c1)NC(=O)c1ccco1`: the “hERG current change (%, negative = inhibition) at 10uM” value was -52.5%.

Turning to `CCOC(=O)c1[nH]c2cc(OC)c(OC)cc2c1N`, the “hERG current change (%, negative = inhibition) at 10uM” value is recorded as 3.6%.

With `CCOCCCNC(=O)CN1C(=O)c2ccccc2Sc2ncccc21`, the “hERG current change (%, negative = inhibition) at 10uM” value came to 6.05%.

`Cc1cccc(N=C(N2CCOCC2)P(=O)(N2CCOCC2)N2CCOCC2)c1`: the “hERG current change (%, negative = inhibition) at 10uM” value was determined as 7.67%.

In the case of `CCN1CCC(N2CCN(c3ccccc3OC)CC2)CC1`, the “hERG current change (%, negative = inhibition) at 10uM” value is on record as 11.7%.

Regarding `O=C(Nc1cc([N+](=O)[O-])ccc1F)C1CC1`, the “hERG current change (%, negative = inhibition) at 10uM” value is -4.7%.
